{"source": "the supplement of paper PMC8728848", "binders": {"B1": {"name": "rCnSL-proA (Clitocybe nebularis) (protein)", "chain": "AAFFSLVVLLALLPFGIHASALPSTELTPRVNPNLPGPNDVFVGFRGTNNIVGAIYEKDGIKDTPLNNGADAEMGPGSYITDGLFTARIFASGSAGNNPGTTATVCKIYASGVQWRGAPKGYIPVAYFGNGPTAEQRRQTYLRTLGLPGTAIRFGNLNTNPGQGPTAPRQMVVPPGPLRSLLKASCFPAADTRLPQTLHYFEKRVDWNIITAADSQTWGH"}}, "test_in_all_cases": "glycan array binding signal (z-score within array); higher = stronger binding", "conditions_in_all_cases": "glycan notation: IUPAC condensed, linker removed", "key": {"[1]": {"target": "Neu5Ac(a2-6)GlcNAc(b1-4)GlcNAc(b1-4)GlcNAc", "outline": "(§1)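 Glycan array data came from 3228 arrays in the Consortium for Functional Glycomics database, and only arrays with an available protein sequence were kept. Glycan names were put into IUPAC-condensed notation, and columns mapping to the same glycan were averaged. The binding signal is a within-array Z-score, averaged across arrays of one protein sequence run at different concentrations or buffers and across linkers. A negative Z-score can be read as non-binding.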"}, "Neu5Ac(a2-8)Neu5Ac": {"target": "Neu5Ac(a2-8)Neu5Ac", "outline": "as §1"}, "[2]": {"target": "Neu5Ac(a2-8)Neu5Ac(a2-3)Gal(b1-3)GalNAc(b1-4)[Neu5Ac(a2-3)]Gal(b1-4)Glc", "outline": "as §1"}, "[3]": {"target": "Neu5Ac(a2-8)Neu5Ac(a2-3)Gal(b1-3)GalNAc(b1-4)[Neu5Ac(a2-8)Neu5Ac(a2-3)]Gal(b1-4)Glc", "outline": "as §1"}, "[4]": {"target": "Neu5Ac(a2-8)Neu5Ac(a2-3)Gal(b1-4)Glc", "outline": "as §1"}, "[5]": {"target": "Neu5Ac(a2-8)Neu5Ac(a2-3)Gal(b1-4)GlcNAc", "outline": "as §1"}, "[6]": {"target": "Neu5Ac(a2-8)Neu5Ac(a2-3)[Gal(b1-3)GalNAc(b1-4)]Gal(b1-4)Glc", "outline": "as §1"}, "[7]": {"target": "Neu5Ac(a2-8)Neu5Ac(a2-3)[GalNAc(b1-4)]Gal(b1-4)Glc", "outline": "as §1"}, "[8]": {"target": "Neu5Ac(a2-8)Neu5Ac(a2-8)Neu5Ac", "outline": "as §1"}, "[9]": {"target": "Neu5Ac(a2-8)Neu5Ac(a2-8)Neu5Ac(a2-3)Gal(b1-4)Glc", "outline": "as §1"}, "[10]": {"target": "Neu5Ac(a2-8)Neu5Ac(a2-8)Neu5Ac(a2-3)[Gal(b1-3)GalNAc(b1-4)]Gal(b1-4)Glc", "outline": "as §1"}, "[11]": {"target": "Neu5Ac(a2-8)Neu5Ac(a2-8)Neu5Ac(a2-3)[GalNAc(b1-4)]Gal(b1-4)Glc", "outline": "as §1"}, "[12]": {"target": "Neu5Ac(a2-8)Neu5Ac(a2-8)Neu5Ac(a2-8)Neu5Ac(a2-3)[GalNAc(b1-4)]Gal(b1-4)Glc", "outline": "as §1"}, "[13]": {"target": "Neu5Ac(a2-8)Neu5Gc(a2-3)Gal(b1-4)GlcNAc", "outline": "as §1"}, "[14]": {"target": "Neu5Ac(b2-6)Gal(b1-4)GlcNAc", "outline": "as §1"}, "Neu5Ac(b2-6)GalNAc": {"target": "Neu5Ac(b2-6)GalNAc", "outline": "as §1"}, "[15]": {"target": "Neu5Ac9Ac(a2-3)Gal(b1-3)GlcNAc", "outline": "as §1"}, "[16]": {"target": "Neu5Ac9Ac(a2-3)Gal(b1-4)GlcNAc", "outline": "as §1"}, "[17]": {"target": "Neu5Ac9Ac(a2-6)Gal(b1-4)GlcNAc", "outline": "as §1"}, "[18]": {"target": "Neu5Gc(a2-3)Gal(b1-3)GlcNAc", "outline": "as §1"}, "[19]": {"target": "Neu5Gc(a2-3)Gal(b1-3)[Fuc(a1-4)]GlcNAc", "outline": "as §1"}, "Neu5Gc(a2-3)Gal(b1-4)Glc": {"target": "Neu5Gc(a2-3)Gal(b1-4)Glc", "outline": "as §1"}, "[20]": {"target": "Neu5Gc(a2-3)Gal(b1-4)GlcNAc", "outline": "as §1"}, "[21]": {"target": "Neu5Gc(a2-3)Gal(b1-4)GlcNAc(b1-3)Gal(b1-4)GlcNAc(b1-2)Man(a1-3)[Neu5Gc(a2-3)Gal(b1-4)GlcNAc(b1-3)Gal(b1-4)GlcNAc(b1-2)Man(a1-6)]Man(b1-4)GlcNAc(b1-4)GlcNAc", "outline": "as §1"}, "[22]": {"target": "Neu5Gc(a2-3)Gal(b1-4)[Fuc(a1-3)]GlcNAc", "outline": "as §1"}, "[23]": {"target": "Neu5Gc(a2-6)Gal(b1-4)GlcNAc", "outline": "as §1"}, "Neu5Gc(a2-6)GalNAc": {"target": "Neu5Gc(a2-6)GalNAc", "outline": "as §1"}, "[24]": {"target": "Neu5Gc(a2-8)Neu5Ac(a2-3)Gal(b1-4)GlcNAc", "outline": "as §1"}, "[25]": {"target": "Neu5Gc(a2-8)Neu5Gc(a2-3)Gal(b1-4)GlcNAc", "outline": "as §1"}, "[26]": {"target": "Neu5Gc(a2-8)Neu5Gc(a2-3)Gal(b1-4)GlcNAc(b1-3)Gal(b1-4)GlcNAc", "outline": "as §1"}, "[27]": {"target": "Neu5Gc(a2-8)Neu5Gc(a2-6)Gal(b1-4)GlcNAc", "outline": "as §1"}, "[28]": {"target": "Neu5Gc(b2-6)Gal(b1-4)GlcNAc", "outline": "as §1"}}, "note": "The other results are listed elsewhere or left out.", "data": [{"binder": "B1", "values": [{"measurement": "glycan array binding signal (z-score)", "setting": "[1]", "result": -0.896}, {"measurement": "glycan array binding signal (z-score)", "setting": "Neu5Ac(a2-8)Neu5Ac", "result": -0.141}, {"measurement": "glycan array binding signal (z-score)", "setting": "[2]", "result": -0.273}, {"measurement": "glycan array binding signal (z-score)", "setting": "[3]", "result": 0.388}, {"measurement": "glycan array binding signal (z-score)", "setting": "[4]", "result": -0.527}, {"measurement": "glycan array binding signal (z-score)", "setting": "[5]", "result": -0.848}, {"measurement": "glycan array binding signal (z-score)", "setting": "[6]", "result": -0.385}, {"measurement": "glycan array binding signal (z-score)", "setting": "[7]", "result": -0.715}, {"measurement": "glycan array binding signal (z-score)", "setting": "[8]", "result": -0.552}, {"measurement": "glycan array binding signal (z-score)", "setting": "[9]", "result": -0.436}, {"measurement": "glycan array binding signal (z-score)", "setting": "[10]", "result": 0.673}, {"measurement": "glycan array binding signal (z-score)", "setting": "[11]", "result": -0.807}, {"measurement": "glycan array binding signal (z-score)", "setting": "[12]", "result": -0.317}, {"measurement": "glycan array binding signal (z-score)", "setting": "[13]", "result": -0.765}, {"measurement": "glycan array binding signal (z-score)", "setting": "[14]", "result": -0.665}, {"measurement": "glycan array binding signal (z-score)", "setting": "Neu5Ac(b2-6)GalNAc", "result": -0.547}, {"measurement": "glycan array binding signal (z-score)", "setting": "[15]", "result": -0.188}, {"measurement": "glycan array binding signal (z-score)", "setting": "[16]", "result": 2.01}, {"measurement": "glycan array binding signal (z-score)", "setting": "[17]", "result": -0.286}, {"measurement": "glycan array binding signal (z-score)", "setting": "[18]", "result": -0.115}, {"measurement": "glycan array binding signal (z-score)", "setting": "[19]", "result": -0.319}, {"measurement": "glycan array binding signal (z-score)", "setting": "Neu5Gc(a2-3)Gal(b1-4)Glc", "result": -0.61}, {"measurement": "glycan array binding signal (z-score)", "setting": "[20]", "result": -0.444}, {"measurement": "glycan array binding signal (z-score)", "setting": "[21]", "result": 0.288}, {"measurement": "glycan array binding signal (z-score)", "setting": "[22]", "result": -0.236}, {"measurement": "glycan array binding signal (z-score)", "setting": "[23]", "result": -0.088}, {"measurement": "glycan array binding signal (z-score)", "setting": "Neu5Gc(a2-6)GalNAc", "result": -0.231}, {"measurement": "glycan array binding signal (z-score)", "setting": "[24]", "result": -0.591}, {"measurement": "glycan array binding signal (z-score)", "setting": "[25]", "result": -0.543}, {"measurement": "glycan array binding signal (z-score)", "setting": "[26]", "result": -0.646}, {"measurement": "glycan array binding signal (z-score)", "setting": "[27]", "result": -0.631}, {"measurement": "glycan array binding signal (z-score)", "setting": "[28]", "result": -0.083}]}]}
